Laboratory results published in the RNAGym collection of RNA variant scans (doi:10.7554/elife.90254).
The source gives no read counts; variants with many changes may rest on few reads.

B1: LINE1-full (parent)
chain: UACGUAGGUGGUUUUCCCCUGAUAGUGCUAAGGGGGCCUGGAAGUUUGGACUGGGCAGAGCUCAACACAGCGUGGCAAAGUGGCUGUGGCUAGACUGCCUCUCUGGAUUCCUCGUCACUCAGCAGGGCAUCUCUGAGAGAAAUGCC

Variants of: B1
Assay: self-cleavage, relative activity (ratio to wild type); higher = more cleavage; in vitro, sequencing; the parent is a self-cleaving ribozyme

Variant | self-cleavage
UACGUAGGUGGUUUCCCCCCAAUAGUGCUAAGGGGGCCUGGAAGUUUGGACUGGGCAGAGCCCAACACAGCGUGGCAAAGUGGCUGUGGCUAGACUGCCUCUCUGGACUCCUCGUCACUCAGCAGGGCAUCUCAGAGAGAAAUGCC [U15C U20C G21A U62C U108C U134A] | 0.19
CACGUAGGAGGUUUUCCUCUGAUAGUGCUAAGGGGGCCUGGAAGUUUGGACUGGGCAGAGCUCAACACAGCGUGGCAAAGUGGCUGUGGCUAGACUGCCUCUCUGGAUUCCUCGUCACUCAGCAGGGCAUCUCUGGGAGAAAUGCC [U1C U9A C18U A136G] | 0.55
UACGUAGGUGGUUUUCCCCUGAUAGUGCUAAGGGGGCCUGGAAGUUUGGACUGGGCGGAGCUCAACACAGCGUGGCAAAGUGGCUGUGGCUAGACUGCCUCUCUGGAUUCCUCGUCACUCAGCAGGGCAUCUCUGAGAGUAACGCC [A57G A140U U143C] | 1.89
UACGUAGGUGGUUUUCCCCUGAUAGCGCUAAGGGGGCCUGGAGGUUUGGACUGGGCAGAGCUCAACACAGCGUGGCAAAGUGGCUGUGGCUAGACUGCCUCUCUGGAUUCCUCGUCACUCAGCAGGGCAUCUCUGAGCGCAAUGCC [U26C A43G A138C A140C] | 1.23
UACGUAGGUGGCUUUCCCCUGAUAGUGCUAAGGGGACCUGGAAGUUUGGACUGGGCAGAGCUCAACACAGCGUGGCAAGGUGGCAGUGGCUAGACUGCCUCUCUGGAUUCCUCGUCACUCAGCAGGGCAUCUCUGAGAGAAAUGCC [U12C G36A A79G U85A] | 0.14
UACGUAGGCGGUUUUCCCCUGAUAGUGCUAAGGGGGCCUGGAAGUUCGGACUGGGCAGAGCUCAACACUGCGUGGCAAAGUGGCUGUGGCUAGACUGCCUCUCUGGAUUCCUCGUUACUCAGCAGGGCAUCUCUGAGAGAAAUGCC [U9C U47C A69U C116U] | 0.11
UACGUAGGUGGGUUUCCCCUGAUAGUGCUAAGGGGGCCUGGAAGUUUGGACUGGGCAGAGCUCAACACAGCGUGGCAAAGUGGCUGUGGCUAGCCUGCCUCUCUGGAUUCCUCGUCACUCAGCAGGGCAUCCCUGAGAGAAAUGCC [U12G A94C U132C] | 0.45
UACGUAGGUGGUUUUCCCCUGAAAGUGCUAAGGGGGCCCGGAAGUUUGGACUGGGCAGAGCCCAACACAGCGUGGCAAAGUGGCUGUGGCUAGACUGCCUCUCUGGAUUCCUCGUCACUCAGCAGGGCAUCUCUGAGAGAAAUGCC [U23A U39C U62C] | 0.3
CACGUAGGUGGAUUUCCCCUGAUAGUGCUAAGGGGGCCUGGAAGUUUGGACUGGGCAGAGCUCAACACAGCGUGGCAAAGUGGCUGUGGCUAGACUGCCUCUCUGGAUUCCUCGUCACUCGGCAGGGCAUCUCUGAGAGAAAUGCC [U1C U12A A121G] | 0.84
UACGUAGGUGGUUUUCCCCUGAUAGUGCUAAGGGGGCCUGGAAGUUUGGACUGGGCAGAGCUCAACACAGCGUGGCAAAGUGGCUGUGGCUAGACUGCCACUCUGGAUUCCUCGUAACCCAGCAGGGCAUCUCUGAGAGAAAUGCC [U100A C116A U119C] | 0.84
UACGUAGGUGGUUUUCCCCUGAUAGUGCUAAGGUGGCCUGGAAGUUUGGACUGGGCAGAGCUCAACACAGCGUGGCUAAGUGGCUGUGGCUAGACUGCAUCUCUGGAUUCCUAGUCACUCAGCAGGGCAUCCCUGAGAGAAAUGCC [G34U A77U C99A C113A U132C] | 0.78
UACGUAGGUGGUUUUCCCCUGAUAGUGCUAAAGGGGCCUGGAAGUUUGGACUGGGCAGAGCUCGACACAGCGUGGCAAAGUGGCUGUGGCUAGACUGCCUCUCUGGAUACCUCGUCACUCAGCAGGGCAUCUCUGAGAGAAAUGCC [G32A A64G U109A] | 0.15
UACGUAGGUGGUUUUCCCCUGAUAGUGCUAAGGGGGCCUGGAAGUUUGGACUGGGCAGAGCUCGGCACAGCGUGGCGAAGUGGCUGUGGCUAGACUGCCUCUCUGGAUUCCUCGUCACUCAGCAGGGCAUCUCUGAGAGAAAUGCC [A64G A65G A77G] | 0
UGCGUAGGUGGUCUUCCCCUGAUAGUGCUAAGGGGGCCUGGAAGUUUGGACAGGGCAGCGCUCAACACAGCGUGGCAAAGUGGCUGUGGCUAGACUGCCUCUCUGGAUUCCUCGUCACUCAGCAGGGCAUCUCUGAGAGAAACGCC [A2G U13C U52A A59C U143C] | 0.53
UACGUAGGUGGUUUUCCCCUGAUAGAGCUAAGGGGGCCUGGAAGUUUGGACUGGGCGGAGCUCAACACAGCGUGGCAGAGUGGCUGUGGCCAGACUGCCUCUCUGGAUUCCUCGUCACUCAGCAGGGCAUCUCUGAGAGAAAUGCC [U26A A57G A78G U91C] | 1.15
UACGUAGGUGGGUUUCCCCUGAUAGUGCUAAGGGGGCCUGGAAGUUUGGACCGGGCGGAGCUCAACACAGCGUGGCAAAGUGGCUGUGGCUAGACUGCCUCUCUGGAUUCCUCGUCACUCAGCAGGGCAUCUCUGAGAGAAAUGCC [U12G U52C A57G] | 2.24
UACGUAGGUGGUUUUCCCCUGAUAGUGCUAAGGGGGCCUGGAAGUUCGGACUGGGCAGAGCUCAACACAGCGUGGCAAAGUGGCUGUGGCUAGACUGCCACUCUGGAUUCCUCGUCACUCAGCAGGGCAUCUCUGAGGGAAAUGCC [U47C U100A A138G] | 1.33
UACGUAGGUGGUUUUCCCCUGAUAGUGCUAAGGGGGCCUGGAAGUUUGGACUGGGCAGAGCCCAACGCAGCGUGGCAAAGUGGCUGUGGCUAGACUGCCUCUCUGGAUUCCUCGUCACUCUGCAGGGCACCUCUGAGAGAAAUGCC [U62C A67G A121U U130C] | 0
UACGUAGGUGGUUUUCCCCUGAUAGUGCUAAGGGGGCCUGGAAGUUUGGACUGGGCAGAGCUCAACACAGCGCGGCAAAGUGGCUGAGGCUAGACUGCCUCUCUGGAUUCCUCGCCACUCAGCAGGGCAUCUCUGAGAGAAAUGCC [U73C U87A U115C] | 0.33
UACGUAGGCGGUUUUCCCCUGAUAGUGCUAAGGGGGCCUGGAAGUUUGGACUGGGCAGAGCUCAACACAGCGUGGCAAAGUGGCUGUGGUUAGACUGCCUCUCUGGAUUCCUCGUCACUCAGCAGGGCUUCUCUGAGAGAAAUGCC [U9C C90U A129U] | 0.08

Variant | self-cleavage
UACGUAGGUGGUUUCCCCCUGAUAGUGCUAAGGGGGCCUGGAAGUUUGGACUGGGCAGAGCUCAACACAUCGUGGCAAAGUGGCUGUGGCUAGACUGCCUCUCUGGAUUCCUCGUCACUCAGCAGGGCGUCUCUGAGAGAAAUGCC [U15C G70U A129G] | 0.13
UACGUAGGUGGUUUUCCCCUGAUAGUGCUAAGGGGGCCUGGAAGUUUGGACUGGGCAGGGCUCAACACAGCGUGGCAAAGUGGCUGAGGCUAGACUGCCUCUCUGGAUUCCUCGUCACUCAGCAGGGCACCUCUGAGAGAAAUGCC [A59G U87A U130C] | 0.1
UACGUAGGUGGUUUUCCCCUGAUAGUGCUAAGGGGGCCUGGAAGCUUGGACUGGGCAGAGCUCAACACAGCGUGGCAAAGUGGCUGUGGCUAGACUGCCUCUCUGGAUUCCUCGUCACUCAGCGGGGCAUCUCUGAGGGAAAUGCC [U45C A124G A138G] | 1.02
CACGCAGGUGGUUUUCCCCUGAUAGUGCUAAGGGGGCCAGGAAGUUUGGACUGGGCAGAGCUCAACACAGCGUGGCGAAGUGGCUGUGGCUAGACUGCCUCUCUGGAUUCCUCGUCACUCAGCAGGGCAUCUCUGAGAGAAAUGCC [U1C U5C U39A A77G] | 1.79
UACGUAGGUGGUUUUCCCCUGAUAGUGCUAGGGGGACCUGGAAGUUUGGACUGGGCAGAGCUCAACACAGCGUGGCAAAGUGGCUGUGGCUAGACUGCCUCUCUGGAUUCCUCGUCACACAGCAGGGCACCUCUGAGAGAAAUGCC [A31G G36A U119A U130C] | 1.41
UACGUAGGUGGUUUACCCCUGAUAGUGCUAAGGAGGCCUGGAAGUUUGGACUGGGCAGAGCUCAACACAGCGAGGCAAAGUGGCUGUGGCUAGACUGCCUCUCUGGACUCCUCGUCACCCAGCAGGGCAUCUCUGAGAGAAAUGCC [U15A G34A U73A U108C U119C] | 1.87
UACGUAGGUGGUUUACCCCUGAUAGUGCUGAGGGGGCCCGGAAGUUAGGACUGGGCGGAGCCCAACACAGCGUGGCAAAGUGGCUGUGGCUAGACUGCCUCUCUGGAUUCCUCGUCACUCAGCAGGGCAUCUCUGAGAGAAAUGCC [U15A A30G U39C U47A A57G U62C] | 0.51
UACGUAGGUGGUUUUCCCCUGAUGGUGCUAAGGGGGCCUGGAAGUUUGGACUGGGCAGAGCUCAACACAGCGUGGCAAAGUGGCUGUGGCUGGACUGCCUCUCUGGAUUCCUCGUCACUCAGCAGGGCAUCUCUGGGGGAGAUGCC [A24G A92G A136G A138G A141G] | 1.41
CACGUAGGUGGAUUUCCCCUGAUGGUGCUAAGGGGGCCUGGGAGUUUGGACAGGGCAGAGCUCAACUCAGCGUGGCAAAGUGGCUGUGGCUAGACUGCCUCUCUGGAUUCCUCGUCACUCAGCAGGGCAUCUCUGAGAGAGAUGCC [U1C U12A A24G A42G U52A A67U A141G] | 0
UACGUAGGUGGUUUUCCCCUGAUAGUGCUAAGGGGGCCUGGAAGUUUGGACUGGGCAGAGCCCAACACAGCGUGGCAAAGUGGCUGUGGCUAGACUGCCCCCCUGGAUUCCUCGUCACUCAGCAGGGCAUCUCUGAGGGAAAUGCC [U62C U100C U102C A138G] | 0.13
UACGUAGGUGGUUUUCCCCUGAUAGUGCUAAGGGGGCCUGGAAGUUUGGACUGGGUAGAGCUCAACACAGCGUGGCAAAGUGGCUGUGGCUAGACUGCCUCUCUGGAGUCCUCGUCACUCAGCGGGGCAUCUCUGAGAGAAAUGCC [C56U U108G A124G] | 0.02
UACGUAGGAGGUUUUCCCCUGGUAGUGCUAAGGGGGCCUGGAAGUUUGGACUGGGCAGGGCUCAACACAGCGUGGCAAAGUGGCUGUGGCUAGACUGCCUCUCUGGAUUCCUCGUCACUCAGCAGGGCAUCUCUGAGAGAAAUGCC [U9A A22G A59G] | 0.62
UACGUAGGUGGUUUUCCCCUGAUAGUGCUAAGGGGGCCUGGAAGUUUGGACUGGGCAGAGCUCAACACAGCGCCGCAAAGUGGCUGUGGCUAGACAGCCUCUCUGGAUUCCUCGUCACUCAGCAGGGCAUCUCUGAGAGAAAUGCC [U73C G74C U96A] | 0
UACGUAGGCGGUUUCCCCCUGUUAGUGCUAAGGGGGCCUGGAAGUUUGGACUGGGCAGAGCUCAACACAGCGUGGCGUAGUGGCUGUGGCUAGACUGCCUCUCUGGAUUCCUCGUCACUCAGCAGGGCAUCUCUGAGAGAAAUGCC [U9C U15C A22U A77G A78U] | 1.88
UACGUAGGUGGUUUUCUCCUGAUAGAGCUAAGGGGGCCCGGAAGUUUGGACUGGGCAGAGCUCAACACAGCGUGGCAUAGUGGCUGUGGCUAGACUGCCUCUCUGGAUUCCUCGUCACUCAGCAGGGCAUCUCUGAGAGAAAUGCC [C17U U26A U39C A78U] | 0.1
UACGUAGGUGGUUUCCCCCUGUUAGUGCUAAGGGGGCUUGGAAGUUUGGACUGGGCAGAGCUCAGCACAGCGUGGCAAAGUGGCUGUGGCUAGACUGCCUCUCUGGAAUCCUCGUCACUCAGCAGGGCAUCUCUGAGAGAAAUGCC [U15C A22U C38U A65G U108A] | 0.05
UACGUAGGUGGUUUUCCCCUGAUAGUGCUAAGGGGGCCUGGAAGUUUGGACUGGGCAGAGCUCAACACAGUGCGGCAAAGUGGCUGUGGCUAGACCGCCUCUCUGGAUUCCUCGUCACUCAGCAGGGCUUCUCUGAGAGAAAUGCC [C71U U73C U96C A129U] | 0.05
UACGUAGGUGGUAUUCCCCUGAUAGUGCUAAGGGGGCCUGGAAGUUUGGACUGGGCAGAGCUCAACACAGCGUGGCGAAGUGGCUGUGGCUAGGCUGCCUCACUGGAUUCCUCGUCACUCAGCAGGGCAUCCCUGAGAGAAAUGCC [U13A A77G A94G U102A U132C] | 0.2
UACGUAGGUGGCUUUCCCCUGAUAGUGCUAAGGGGGCCUGGAAGUUAGGACUGGGCAGGGCUCAACACAGCGUGGCAAAGUGGCUGCGGCUAGACUGCCUCUCUGGAUUCCUCGUCACUCAGCAGGGCAUCUCUGAGGGGAAUGCC [U12C U47A A59G U87C A138G A140G] | 0.32
